# PubChem BioAssay AID1345083 (National Center for Advancing Translational Sciences (NCATS), 2018)
# Values joined by “and” are separate entries in the source; they are usually repeats but may differ in a detail not shown here. Identical values can stand only once. The campaign covered roughly 94,000 compounds. About 6,200 (6.6%) were called active. Inconclusive results, whose numbers are uncertain, are shown with a selection of clear calls. Calls follow the shape of the dose curve; as a rule, active = well fitted inhibition curve with a large enough effect; inconclusive = small, poorly fitted or top-dose-only effect; inactive = flat fitted curve, though single readings scatter. Potencies beside an inconclusive call are fits to weak or partial responses and may not hold up.
# Assay: Cytotoxic Profiling in HEK 293 Cell Line of Diverse Libraries Using Quantitative High-Throughput Screening; also: nearly all actives have a fitted effect of over 60% in size
# Conditions: HEK 293 viability, ATP luminescence (CellTiter-Glo), 48-72 h; activity change, negative = cytotoxicity: at 115 µM (top of the series) unless noted; series mostly up to 115 µM
# How it was run: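 Cytotoxicity was scored by loss of ATP-coupled luminescence (CellTiter-Glo) in HEK 293 cells. Compound treatment ran 48 or 72 hr at 37 degree Celsius, 5% CO2, 95% humidity.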
# % is scaled to controls: 0 for no effect and ±100 for the full control effect; potency is read from the fitted curve at half-maximal effect; tags tell the direction and shape of the fitted curve.
Structure (SMILES),Potency,"activity change, negative = cytotoxicity",outcome
COc1ccc(C(=O)N[C@H]2C[C@@H](Cc3cc(-c4ccccc4)on3)C2(C)C)cc1,active: 44.7 µM,,
O=C(N[C@H]1CCN2C(=O)c3cc(/C=C/c4ccccc4)ccc3NC(=O)[C@H]12)c1cnccn1,"inconclusive: 126 µM [inhibitor, single point]",,
CC(=O)c1cccc(NC(=O)Cn2c(Nc3cc(C)cc(C)c3)nc(C)cc2=O)c1,"inconclusive: 79.4 µM [inhibitor, partial curve, poor fit]",,
O=C(c1cccs1)N1CCN2CCS(=O)(=O)N(C3CC3)C(=O)C2C1 (stereo not given),,inactive: 0.625%,
CCCc1noc(-c2cn(C3CCN(C(=O)c4ccc(C#N)cc4)CC3)nn2)n1,,inactive: -2.03%,
COCC(=O)N[C@H]1C[C@H]2C(=O)Nc3ccc(/C=C/c4ccccc4)cc3C(=O)N2C1,"inconclusive: 89.1 µM [inhibitor, partial curve]",,
O=[S+]([O-])(c1ccccc1)N1CCC2(CC(c3cccnc3)=NO2)C1 (stereo not given),,,inactive
COC(=O)CNC(=O)C1CCN(Cc2ccccc2-c2ccccc2F)CC1,,inactive: 0.145%,
CCCC(=O)N1CCC2(CC1)CC(N(Cc1ccc(F)cc1)C1CC1)CCO2 (stereo not given),"inconclusive: 89.1 µM [inhibitor, single point]",,
COc1ccc(C(=O)NC2CCN(Cc3cccc(-c4cccc(C)c4)c3)CC2)cc1,active: 35.5 µM,,
O=C(CCC1CCN(C(=O)c2ccccc2)CC1)N1CCC(Cc2ccccc2)CC1,"inconclusive: 22.4 µM [inhibitor, full curve, poor fit]",,
O=C(C1CCc2nnc(-c3cccc(C(F)(F)F)c3)n21)N1CCOCC1 (stereo not given),"inconclusive: 28.2 µM [inhibitor, partial curve]",,
COc1ccccc1-c1nnc2ccc(C(=O)NCc3ccc(F)cc3)cn12,"inconclusive: 89.1 µM [inhibitor, single point]",,
CC(=O)Nc1ccc(CNC[C@H]2COCc3nc4ccc(C)cc4n32)cc1,,inactive: -19.5% [at 172 µM],
CCS(=O)(=O)N(C1CC1)C1CCOC2(CCN(C(=O)Cc3cccc(C)c3)CC2)C1 (stereo not given),"inconclusive: 79.4 µM [inhibitor, single point]",,
Cc1nc(-c2cccc(Cl)c2)n(Cc2nc(-c3ccc(OC(C)C)cc3)oc2C)c(=O)c1CCO,,inactive: -10.2%,
Cc1ccc(CNC(=O)c2noc(-c3ccc(F)cc3)n2)cc1,"inconclusive: 70.8 µM [inhibitor, partial curve, poor fit]",,
COc1ccc(-c2cccc(C(=O)NC(C)C)c2)nn1,,inactive: -3.5% [at 172 µM],
CN1CCOc2c(C(=O)NCc3cccnc3)cc(-c3ccc(N4CCOCC4)cc3)cc21,"inconclusive: 89.1 µM [inhibitor, partial curve, poor fit]",,
CCNc1ncc(C(=O)N(CCc2ccccc2)Cc2ccco2)cn1,"inconclusive: 35.5 µM [inhibitor, partial curve]",,
OC(c1nc(Nc2cccc(F)c2)n[nH]1)C1CC1 (stereo not given),,inactive: 0.171% [at 230 µM],
Cc1noc(C)c1[S+](=O)([O-])N1CCC(N2Cc3cnc(C)n3C2=O)CC1,,inactive: -21.3%,

Structure (SMILES),Potency,"activity change, negative = cytotoxicity",outcome
O=C(NC1CCCC1)N1c2ccccc2CC1c1noc(C2CCOCC2)n1 (stereo not given),"inconclusive: 100 µM [inhibitor, single point]",,
COc1ccc(N2C(=O)C3(CCCCC3)C2C(=O)NCCCN2CCCCC2)cc1 (stereo not given),,inactive: -12.1%,
O=C(Cc1c[nH]c2ncc(-c3ccc(Cl)cc3)cc12)NCc1cccnc1,active: 89.1 µM,,
O=C([C@@H]1C[C@H](F)CN1S(=O)(=O)Cc1ccc(Cl)cc1)N1CCCCC1,"inconclusive: 79.4 µM [inhibitor, single point]",,
OCC1(CCCc2ccccc2)CCN(Cc2cccc(-n3cccn3)c2)CC1,"inconclusive: 56.2 µM [inhibitor, partial curve, poor fit]",,
CC(=O)NC1(C)CCN(c2cccc(C(F)(F)F)c2)CC1,"inconclusive: 112 µM [inhibitor, partial curve, poor fit]",,
Cc1cc(C)c(CNC(=O)c2cc(-c3cccnc3)cc3c2OCCN3C(C)C)c(=O)[nH]1,active: 100 µM,,
CCNc1cc(N2CCC(CCC(=O)Nc3ccc4c(c3)OCCO4)CC2)ncn1,"inconclusive: 79.4 µM [inhibitor, partial curve, poor fit]",,
Cc1noc(-c2ccncc2)c1C(=O)NCCCCc1ccccc1,"inconclusive: 89.1 µM [inhibitor, single point]",,
O=C(CNC(=O)c1cccc(-c2ccc(C(F)(F)F)cc2)c1)NCCC1CCCCC1,active: 22.4 µM,,
CCOCC1(C)COc2ccc(C(=O)Nc3cccc(N(C)C)c3)cc2N1 (stereo not given),"inconclusive: 100 µM [inhibitor, partial curve, poor fit]",,
COc1ccc(F)cc1-c1ccc(CN2CCC(N[S+](=O)([O-])c3ccc(C)cc3)C2)cc1 (stereo not given),active: 31.6 µM,,
CCOc1ccc(-c2cc3c(=O)n(CCNC(=O)c4ccccc4OC)ccn3n2)cc1,"inconclusive: 89.1 µM [inhibitor, single point]",,
CN(C)c1cccc(C(=O)NC2CCCN(c3cc(-c4ccc(Cl)cc4)[nH]n3)C2)c1 (stereo not given),"inconclusive: 35.5 µM [inhibitor, partial curve, poor fit]",,
Cc1ccc(S(=O)(=O)N2CCC(OC3CCN(Cc4ccccc4)CC3)CC2)cc1C,"inconclusive: 50.1 µM [inhibitor, partial curve, poor fit]",,
O=C(c1ccc(Cl)nc1)N1CCC2(C1)C(=O)N(CCc1ccccc1)c1ccccc12 (stereo not given),"inconclusive: 35.5 µM [inhibitor, partial curve, poor fit] and inconclusive: 50.1 µM [inhibitor, partial curve, poor fit]",,
CC(C)Oc1cccc2c1c(NC(=O)C1CCN(C)C1)nn2Cc1ccccc1 (stereo not given),"inconclusive: 79.4 µM [inhibitor, partial curve, poor fit]",,
COc1ccc(N2CC(c3noc(-c4ccccc4F)n3)CC2=O)cc1OC (stereo not given),,inactive: -3.13%,
O=C1[C@H]2CN(Cc3ccccc3Br)C[C@H]2C(=O)N1Cc1ccc2c(c1)OCO2,"inconclusive: 89.1 µM [inhibitor, partial curve, poor fit]",,
COc1cccc(NC(=O)c2ccc(CN3C(=O)NC4(CCOCC4)C3=O)cc2)c1,"inconclusive: 89.1 µM [inhibitor, single point]",,
O=C(NCc1ccccc1)C1CCN(c2cnc3nccnc3c2)CC1,"inconclusive: 89.1 µM [inhibitor, single point]",,
O=C1CCN(Cc2cccnc2)CCCC(C(=O)NCCC2=CCCCC2)CCN1 (stereo not given),,inactive: -8.14%,

Structure (SMILES),Potency,"activity change, negative = cytotoxicity",outcome
COCC1CN(C(=O)c2ccnn2C)CC12CCOCC2 (stereo not given),,inactive: -5.95%,
Cc1ccc(-c2nc(C(=O)NCc3cccc(C)c3)no2)cc1,active: 79.4 µM,,
CCc1ccc(CNC(=O)c2cc3c(N4CCCC4)nc(C)cn3n2)cc1,"inconclusive: 89.1 µM [inhibitor, single point]",,
Cc1noc(-c2cccn3c(CNC(=O)c4c[nH]c5ccccc45)nnc23)n1,"inconclusive: 79.4 µM [inhibitor, single point]",,
COc1ccc(-c2cc(C(=O)N3CCC(c4ccccc4)CC3)c3cnn(C)c3n2)cc1,"inconclusive: 31.6 µM [inhibitor, full curve, poor fit]",,
FC(F)(F)c1ccnc(-c2cc(NCc3ccccn3)nc3[nH]ccc23)c1,"inconclusive: 89.1 µM [inhibitor, single point]",,
CCc1ccc(NC(=O)Cn2c(-c3ccccc3)nc(C)c(CCO)c2=O)cc1,active: 39.8 µM,,
COc1cc(-c2cc3c(nc2-c2ccccc2)nc(C(=O)NCCN(C)C)n3C)ccn1,"inconclusive: 100 µM [inhibitor, partial curve]",,
COc1cc(NC(=O)Cn2c(-c3cccc(Cl)c3)nc(C)c(CCO)c2=O)cc(OC)c1OC,"inconclusive: 50.1 µM [inhibitor, partial curve, poor fit]",,
CCCN(CC1CCOC1)C(=O)Nc1ccc(Br)cc1 (stereo not given),,inactive: -8.94%,
O=C(CC1CCCC1)N1CCC2(CC1)C(=O)N(c1cccc(F)c1)C2c1ccccc1 (stereo not given),"inconclusive: 50.1 µM [inhibitor, partial curve, poor fit]",,
Cc1ccc(CCN2CCC3(Cc4ccccc4CN([S+](C)(=O)[O-])C3)C2)cc1 (stereo not given),"inconclusive: 89.1 µM [inhibitor, single point]",,
CCC1=C(C(=O)OC)C(c2ccc(C)cc2C)N2C(CC(=O)N3CCCC3)=CSC2=N1 (stereo not given),"inconclusive: 56.2 µM [inhibitor, partial curve, poor fit]",,
O=C(Nc1cccc(Cl)c1)N1CCCCC1c1noc(COCC2CC2)n1 (stereo not given),"inconclusive: 50.1 µM [inhibitor, partial curve, poor fit]",,
COC[C@@H]1CN(C(=O)c2cc(F)ccc2F)C[C@H]1c1ccncc1,,inactive: -18%,
COCCNC(=O)c1ccc2nccn2c1,,inactive: 3.04% [at 230 µM],
O=C1CCN(Cc2ccc(F)cc2F)CCCC(c2nc(-c3cccnc3)no2)CCN1 (stereo not given),"inconclusive: 56.2 µM [inhibitor, partial curve, poor fit]",,
Cc1cc(CNC(=O)[C@@H]2CCC[C@@H](NC(=O)C3CC3)CN(C)C(=O)C2)no1,,inactive: 3.26% [at 172 µM],
COc1cc(NC(=O)CN2C(=O)NC3(CCCCC3)C2=O)cc(OC)c1,,inactive: -13.4%,
C[C@H]1[C@@H]2[C@@H](O)C([C@H](C)C(=O)NCc3ccccc3)CC[C@@]2(C)CC[C@@H]1NC(=O)C1CCCCC1 (stereo not given in full),"inconclusive: 50.1 µM [inhibitor, partial curve, poor fit]",,
COc1cccc([S+](=O)([O-])N2CCCC3(COc4ccccc4C(=O)N3)C2)c1 (stereo not given),"inconclusive: 25.1 µM [inhibitor, full curve]",,
